{"source": "PubChem BioAssay AID588855", "about": "(National Center for Advancing Translational Sciences (NCATS), 2011)", "note": "The campaign covered roughly 410,000 compounds. About 5,000 (1.2%) were called active. The shares of active, inactive and inconclusive entries below differ from those in the screen. Calls come from the whole dose curve; as a rule, active = well fitted inhibition curve with a large enough effect; inconclusive = small, poorly fitted or top-dose-only effect; inactive = no such curve, though single readings can be large or run the other way. Potencies of inconclusive entries are doubtful fits and often do not repeat. % is set by controls: 0 for no effect and ±100 for the full control effect; potency is the fitted concentration of half-maximal effect; tags give direction and shape of the fitted curve.", "data": [{"experiment": "qHTS for Inhibitors of TGF-b; note: nearly all actives have a fitted effect of over 65% in size", "settings": "HepG2 CAGA-GFP TGF-b/SMAD3 reporter, GFP fluorescence, 18 h, TGF-beta stimulated, 500 pg/mL final; series mostly up to 46.1 µM; activity, negative = inhibition: at the top concentration", "summary_of_the_method": "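Using HEPG2 CAGA-GFP reporter cells at 1000 cells/well, we pinned test compounds, stimulated with recombinant TGF-beta (500 pg/mL final) and measured total well GFP after 18 h.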", "values": [{"smiles": "O=c1cc(-c2ccccc2Cl)oc2c(NS(=O)(=O)c3cc(Cl)cc(Cl)c3O)ccc(O)c12", "Potency": "active: 6.31 µM"}, {"smiles": "COc1ccc(-c2csc(NC(=O)c3ccc(C(C)(C)C)cc3)c2C(=O)O)cc1", "Potency": "inconclusive: 35.5 µM [inhibitor, single point]"}, {"smiles": "COc1ccc(CN(C)C[C@@H]2OCCCC[C@H](C)Oc3ccc(NC(=O)Nc4ccc(F)cc4)cc3C(=O)N([C@H](C)CO)C[C@H]2C)cc1", "Potency": "inconclusive: 15.8 µM [inhibitor, single point]"}, {"smiles": "CCCCCOc1ccc(C(=O)NCC2(c3ccccc3)CCOCC2)cc1", "Potency": "inconclusive: 25.1 µM [inhibitor, single point]"}, {"smiles": "Cc1ccc2nc(-c3ccc(F)cc3)c(Cc3ccccc3C(F)(F)F)n2c1", "Potency": "inconclusive: 35.5 µM [inhibitor, single point]"}, {"smiles": "OC(CN1CCN(c2ccccc2)CC1)c1ccc2c(c1)CCN2", "note": "(stereo unspecified)", "activity, negative = inhibition": "inactive: -17.4%"}, {"smiles": "CN(CC(=O)Nc1ccc(Cl)c(C(F)(F)F)c1)C(=O)C1CC(=O)N(c2ccc3c(c2)OCCO3)C1", "note": "(stereo unspecified)", "Potency": "inconclusive: 17.8 µM [inhibitor, single point]"}, {"smiles": "COc1cc(NC2c3ccccc3C(=O)N2Cc2ccccc2Cl)cc(OC)c1OC", "note": "(stereo unspecified)", "activity, negative = inhibition": "inactive: -6.73%"}, {"smiles": "Cc1onc(-c2ccccc2)c1C(=O)OCC(=O)Nc1ccccc1", "Potency": "inconclusive: 3.16 µM [inhibitor, partial curve, poor fit]"}, {"smiles": "O=C(NCc1ccccc1Cl)C1CCCN(S(=O)(=O)c2cccc3nsnc23)C1", "note": "(stereo unspecified)", "Potency": "inconclusive: 35.5 µM [inhibitor, single point]"}, {"smiles": "COC(=O)C1CCN(c2ccc([N+](=O)[O-])cc2)CC1", "activity, negative = inhibition": "inactive: 3.93%"}, {"smiles": "CCN(CC)c1nc(N)c(C#N)c(CC#N)c1C#N", "activity, negative = inhibition": "inactive: 4.99%"}, {"smiles": "Cc1ccccc1CC1(CO)CCCN(Cc2ccc(C#CC(C)(C)O)cc2)C1", "note": "(stereo unspecified)", "activity, negative = inhibition": "inactive: -20.8%"}, {"smiles": "COc1ccc(NC(=O)CN2CCN(Cc3ccc(F)cc3)S2(=O)=O)cc1Cl", "activity, negative = inhibition": "inactive: -31.5%"}, {"smiles": "Cc1nnsc1NC(=O)OCc1ccc(C(C)(C)C)cc1", "Potency": "inconclusive: 12.6 µM [inhibitor, single point]"}, {"smiles": "COCCN(C(=O)COC(=O)CC(C)c1ccccc1)c1c(N)n(Cc2ccccc2)c(=O)[nH]c1=O", "note": "(stereo unspecified)", "activity, negative = inhibition": "inactive: -14.7%"}, {"smiles": "COc1ccc(NC(=O)c2cc(S(=O)(=O)N3CCCCCC3)cn2C)c(OC)c1", "Potency": "inconclusive: 2.51 µM [inhibitor, partial curve, poor fit]"}, {"smiles": "C=CCNC(=S)N/N=C/c1ccc(-c2ccc(Cl)cc2Cl)o1", "Potency": "inconclusive: 7.08 µM [inhibitor, partial curve]"}, {"smiles": "O=C(Nc1ccccc1)OCCNC1CCCCC1", "Potency": "inconclusive: 3.55 µM [inhibitor, single point]"}, {"smiles": "CCCN(CCC)CC(O)Cn1cc(/C=C/C(=O)c2ccc(C)cc2)c2ccccc21", "note": "(stereo unspecified)", "Potency": "inconclusive: 35.5 µM [inhibitor, single point]"}, {"smiles": "CC(C)(C)c1ccc(C(=O)NCC(=O)OCC(=O)Nc2nc(-c3ccc(F)cc3)cs2)cc1", "Potency": "inconclusive: 6.31 µM [inhibitor, single point]"}, {"smiles": "CN(Cc1ccc(F)cc1)C(=O)C(c1ccccc1)c1ccccc1", "activity, negative = inhibition": "inactive: -6.53%"}, {"smiles": "c1coc(CNc2nc3sc4c(c3c3ncnn23)CCCC4)c1", "Potency": "inconclusive: 31.6 µM [inhibitor, single point]"}, {"smiles": "CC(=O)OC1CCC2C3CCC4=C(CC(F)C(=O)C4)C3CCC12C", "note": "(stereo unspecified)", "Potency": "inconclusive: 22.4 µM [inhibitor, partial curve, poor fit]"}, {"smiles": "OC(c1cc(F)cc(Cl)c1)c1ncc(-c2ccc(Cl)cc2)[nH]1", "note": "(stereo unspecified)", "Potency": "inconclusive: 35.5 µM [inhibitor, single point]"}, {"smiles": "O=C(NC(=S)Nc1ccc(Br)cn1)c1cncc(Br)c1", "Potency": "inconclusive: 22.4 µM [inhibitor, partial curve, poor fit]"}, {"smiles": "CCO[C@H]1OC(C(=O)NCc2ccccc2)=C[C@@H](c2ccc(Br)cc2)[C@@H]1CCCO", "Potency": "inconclusive: 3.16 µM [inhibitor, single point]"}, {"smiles": "Cc1ccc(NC(=O)Nc2nnc(-c3ccccc3)o2)cc1", "activity, negative = inhibition": "inactive: 0.272%"}, {"smiles": "Cn1c2c(c(=O)n(C)c1=O)C(NC(=O)C(C)(C)C)(C(F)(F)F)C(=O)N2", "note": "(stereo unspecified)", "Potency": "inconclusive: 25.1 µM [inhibitor, single point]"}, {"smiles": "CC(C)(C)c1cc(C(=O)N/N=C/c2ccc(F)cc2)n(-c2ccccc2)n1", "activity, negative = inhibition": "inactive: -27.1%"}, {"smiles": "O=C(Nc1nc(-c2ccc(Br)cc2)cs1)c1cccnc1", "activity, negative = inhibition": "inactive: 9.67%"}, {"smiles": "COc1ccc(S(=O)(=O)n2ccc(-c3ccc4c(c3)CCC(C)(C)O4)n2)cc1", "Potency": "inconclusive: 8.91 µM [inhibitor, partial curve, poor fit]"}, {"smiles": "C=Cc1ccc(Cn2c(C(=O)O)c(CNC3CCCC3)c3ccc(C)cc32)cc1", "Potency": "inconclusive: 35.5 µM [inhibitor, single point]"}, {"smiles": "CN(C)S(=O)(=O)c1ccc2c(c1)N(CC(=O)Nc1ccc(OC(F)(F)F)cc1)C(=O)CS2", "Potency": "inconclusive: 14.1 µM [inhibitor, partial curve, poor fit]"}, {"smiles": "O=C(Nc1ccc(F)cc1)Nc1nnc(-c2ccncc2)s1", "Potency": "inconclusive: 11.2 µM [inhibitor, partial curve, poor fit]"}, {"smiles": "CCOC(=O)c1cnn2c(SC)ncnc12", "Potency": "inconclusive: 35.5 µM [inhibitor, single point]"}, {"smiles": "Cc1sc2ncnc(SCC(=O)c3cccs3)c2c1C", "activity, negative = inhibition": "inactive: -5.76%"}, {"smiles": "Cc1cccc(N(C)C(=O)CCS(=O)(=O)c2ccc3c(c2)oc(=O)n3C)c1", "activity, negative = inhibition": "inactive: -30.6%"}, {"smiles": "Cc1cc2c3c([nH]c2cc1S(=O)(=O)N1CCC2(CC1)OCCO2)CCCC3=O", "Potency": "inconclusive: 2.51 µM [inhibitor, full curve]"}, {"smiles": "O=C(NCCS(=O)(=O)N1CCN(c2ccccc2)CC1)C1CCCCC1", "Potency": "inconclusive: 6.31 µM [inhibitor, single point]"}, {"smiles": "CC(C)C[C@H](NC(=O)N1CCn2c1nc1ccccc12)C(=O)NCc1ccccc1", "Potency": "inconclusive: 14.1 µM [inhibitor, single point]"}, {"smiles": "CCC(Oc1ccccc1F)C(=O)N1CCC(c2nc3ccccc3s2)CC1", "note": "(stereo unspecified)", "Potency": "inconclusive: 15.8 µM [inhibitor, single point]"}, {"smiles": "Cc1ccc(C(CC(=O)c2ccco2)SCCO)cc1", "note": "(stereo unspecified)", "Potency": "inconclusive: 14.1 µM [inhibitor, single point]"}, {"smiles": "CCc1cc(C(c2cccc(OC)c2)N2CCOCC2)c(NC(=O)c2ccccc2)s1", "note": "(stereo unspecified)", "Potency": "inconclusive: 15.8 µM [inhibitor, single point]"}, {"smiles": "COC(=O)C(CCSC)NC(=O)c1cc2c(n(-c3ccc(Cl)cc3)c1=O)CCCC2=O", "note": "(stereo unspecified)", "activity, negative = inhibition": "inactive: -0.326%"}, {"smiles": "CC1(Oc2cnc(Cl)c3ccccc23)CCN(Cc2ccc(OC(F)(F)F)cc2)C1", "note": "(stereo unspecified)", "Potency": "inconclusive: 15.8 µM [inhibitor, single point]"}, {"smiles": "COc1ccc(Cl)cc1NC(=O)C1CCCN(c2ncnc3onc(C)c23)C1", "note": "(stereo unspecified)", "Potency": "inconclusive: 11.2 µM [inhibitor, single point]"}, {"smiles": "Cc1onc(-c2ccccc2Cl)c1C(=O)O/N=C(\\N)c1ccc([N+](=O)[O-])o1", "Potency": "inconclusive: 17.8 µM [inhibitor, partial curve, poor fit]"}, {"smiles": "O=C(COC(=O)C1CCN(S(=O)(=O)c2cc([N+](=O)[O-])ccc2Cl)CC1)Nc1ncc(Cl)cc1Cl", "Potency": "inconclusive: 5.62 µM [inhibitor, single point]"}, {"smiles": "Cc1ccc(NC(=O)c2cc(N3C(=O)C=CC3=O)ccc2Cl)cc1C", "Potency": "inconclusive: 10 µM [inhibitor, partial curve, poor fit]"}, {"smiles": "Cc1c(C#N)c(SCC(N)=O)nc2c1CCCC2", "Potency": "inconclusive: 17.8 µM [inhibitor, single point]"}, {"smiles": "CCOC(=O)c1oc2ccc(S(=O)(=O)n3nc(-c4cc(OC)c(OC)c(OC)c4)cc3N)cc2c1C", "Potency": "inconclusive: 25.1 µM [inhibitor, single point]"}, {"smiles": "CCOc1ccc2nnc(-c3ccc(Br)cc3)n2n1", "Potency": "inconclusive: 14.1 µM [inhibitor, single point]"}, {"smiles": "C[C@]12c3[nH]c4ccc(Cl)cc4c3CCN1C(=O)[C@@H](CC(=O)NCC13CC4CC(CC(C4)C1)C3)C[C@@H]2C(=O)N1CCOCC1", "Potency": "active: 10 µM"}, {"smiles": "CN(C)S(=O)(=O)c1ccc(N2CCCC2)c(C(=O)NNC(=O)c2ccc(Br)cc2)c1", "Potency": "inconclusive: 20 µM [inhibitor, single point]"}, {"smiles": "CC(C)(C)n1ncc2c(=O)n(Cc3cccc(-c4ccccc4)c3)cnc21", "Potency": "inconclusive: 17.8 µM [inhibitor, single point]"}, {"smiles": "CC1CCN(CCc2nc3cc(NS(=O)(=O)c4ccccc4)ccc3n2C)CC1", "Potency": "inconclusive: 14.1 µM [inhibitor, single point]"}, {"smiles": "COC(=O)c1cc(S(=O)(=O)NCCN2CCOCC2)cn1C", "activity, negative = inhibition": "inactive: 1.37%"}, {"smiles": "O=C(Cn1cnc2c(oc3nc4c(cc32)CCCC4)c1=O)Nc1cccc(Cl)c1", "activity, negative = inhibition": "inactive: -0.766%"}, {"smiles": "O=C(CCS(=O)(=O)c1ccccc1)NCCS(=O)(=O)c1ccccc1", "Potency": "inconclusive: 17.8 µM [inhibitor, single point]"}, {"smiles": "O=S(=O)(Nc1ccc(O)c(Sc2nc3ccccc3s2)c1)c1ccc(F)cc1", "Potency": "inconclusive: 31.6 µM [inhibitor, single point]"}, {"smiles": "CCOCCCNCc1ccc(OCc2ccccc2C)c(OC)c1", "activity, negative = inhibition": "inactive: -25.1%"}, {"smiles": "CCOC(=O)/C=C1\\Nc2ccccc2OC1=O", "activity, negative = inhibition": "inactive: -8.72%"}, {"smiles": "O=C(COC(=O)CNC(=O)c1ccccc1)NCCc1ccccc1", "Potency": "inconclusive: 8.91 µM [inhibitor, partial curve]"}, {"smiles": "O=C(COc1ccc(Cl)cc1Cl)N1CCN(C(=O)c2ccco2)CC1", "Potency": "inconclusive: 0.447 µM [inhibitor, full curve]"}, {"smiles": "Cc1ccc(NC(=O)C2CC(=O)N(C(C)C)C2)cc1C", "note": "(stereo unspecified)", "activity, negative = inhibition": "inactive: -7.02%"}]}]}
